Measured values taken from paper PMC12820563, “FoxP3 forms a head-to-head dimer in vivo and stabilizes its multimerization on adjacent microsatellites”.
The list shows a part of the results.

Target: T1, MBP-FoxP1dN (Mus musculus, UniProt P58462 326-579)
T1 sequence: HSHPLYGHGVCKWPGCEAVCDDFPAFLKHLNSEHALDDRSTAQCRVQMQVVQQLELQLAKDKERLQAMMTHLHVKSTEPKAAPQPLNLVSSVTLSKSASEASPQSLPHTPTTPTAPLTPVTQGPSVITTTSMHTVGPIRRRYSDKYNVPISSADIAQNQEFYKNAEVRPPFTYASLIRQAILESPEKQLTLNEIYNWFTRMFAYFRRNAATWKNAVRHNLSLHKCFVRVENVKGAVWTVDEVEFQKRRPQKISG
Test: PD-seq (MBP pull-down with sequencing); 20 mM Tris-HCl pH 7.5, 100 mM NaCl, 1.5 mM MgCl2, 0.4 uM protein, 0.1 uM dsDNA library, 30 min, room temperature, amylose pull-down; high values mean tight binding
Details: protein: recombinant; tags: His6-MBP; chain copies: 2; dsDNA, one strand shown
In short: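 Amylose resin was used to capture complexes formed during 30 min at room temperature in Tris pH 7.5 buffer with NaCl and MgCl2 between 0.4 µM His6-MBP-tagged mouse FoxP3 or FoxP1 fragment lacking the N-terminus, expressed in E. coli, and 0.1 µM Klenow-filled double-stranded degenerate DNA library. After three washes, the DNA was released with proteinase K, barcoded by PCR and sequenced on Illumina. Binding is pooled-replicate reads-per-million enrichment, pull-down over input.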

| Sequence | binding signal |
| --- | --- |
| GATGATTGTTCTCCCAGCTGATGAATTACTGTAGTCGAGTAAACAAATTTTCCTAATCTTTCTGTTCAAGCGCCATCTAC | 1.18 RPM ratio (pull-down/input) |
| GATGATTGTTCTCCCAGCTGATGAATTATATCCCTCGAGTAAACAAATTTTCCTAATCTTTCTGTTCAAGCGCCATCTAC | 0.962 RPM ratio (pull-down/input) |
| GATGATTGTTCTCCCAGCTGATGAATTCTACTTTTCGAGTAAACAAATTTTCCTAATCTTTCTGTTCAAGCGCCATCTAC | 0.956 RPM ratio (pull-down/input) |
| GATGATTGTTCTCCCAGCTGATGAATTGACAAGGTCGAGTAAACAAATTTTCCTAATCTTTCTGTTCAAGCGCCATCTAC | 1.01 RPM ratio (pull-down/input) |
| GATGATTGTTCTCCCAGCTGATGAATTCTCCGAATCGAGTAAACAAATTTTCCTAATCTTTCTGTTCAAGCGCCATCTAC | 0.942 RPM ratio (pull-down/input) |
| GATGATTGTTCTCCCAGCTGATGAATTATTAGATTCGAGTAAACAAATTTTCCTAATCTTTCTGTTCAAGCGCCATCTAC | 1.08 RPM ratio (pull-down/input) |
| GATGATTGTTCTCCCAGCTGATGAATTATAAACTTCGAGTAAACAAATTTTCCTAATCTTTCTGTTCAAGCGCCATCTAC | 1.11 RPM ratio (pull-down/input) |
| GATGATTGTTCTCCCAGCTGATGAATTCGTCCCTTCGAGTAAACAAATTTTCCTAATCTTTCTGTTCAAGCGCCATCTAC | 0.82 RPM ratio (pull-down/input) |
| GATGATTGTTCTCCCAGCTGATGAATTCGTAAAGTCGAGTAAACAAATTTTCCTAATCTTTCTGTTCAAGCGCCATCTAC | 0.923 RPM ratio (pull-down/input) |
| GATGATTGTTCTCCCAGCTGATGAATTGGCTGTCTCGAGTAAACAAATTTTCCTAATCTTTCTGTTCAAGCGCCATCTAC | 0.789 RPM ratio (pull-down/input) |
| GATGATTGTTCTCCCAGCTGATGAATTTCCTTCCTCGAGTAAACAAATTTTCCTAATCTTTCTGTTCAAGCGCCATCTAC | 0.802 RPM ratio (pull-down/input) |
| GATGATTGTTCTCCCAGCTGATGAATTTAGTTAATCGAGTAAACAAATTTTCCTAATCTTTCTGTTCAAGCGCCATCTAC | 1.03 RPM ratio (pull-down/input) |
| GATGATTGTTCTCCCAGCTGATGAATTATAGGTGTCGAGTAAACAAATTTTCCTAATCTTTCTGTTCAAGCGCCATCTAC | 0.94 RPM ratio (pull-down/input) |
| GATGATTGTTCTCCCAGCTGATGAATTACCTCGGTCGAGTAAACAAATTTTCCTAATCTTTCTGTTCAAGCGCCATCTAC | 0.889 RPM ratio (pull-down/input) |
| GATGATTGTTCTCCCAGCTGATGAATTCTTCCCATCGAGTAAACAAATTTTCCTAATCTTTCTGTTCAAGCGCCATCTAC | 0.852 RPM ratio (pull-down/input) |
| GATGATTGTTCTCCCAGCTGATGAATTCTTTAAATCGAGTAAACAAATTTTCCTAATCTTTCTGTTCAAGCGCCATCTAC | 0.933 RPM ratio (pull-down/input) |
| GATGATTGTTCTCCCAGCTGATGAATTTCGAGCTTCGAGTAAACAAATTTTCCTAATCTTTCTGTTCAAGCGCCATCTAC | 0.792 RPM ratio (pull-down/input) |
| GATGATTGTTCTCCCAGCTGATGAATTTCCTGGTTCGAGTAAACAAATTTTCCTAATCTTTCTGTTCAAGCGCCATCTAC | 0.781 RPM ratio (pull-down/input) |
| GATGATTGTTCTCCCAGCTGATGAATTACCGCTGTCGAGTAAACAAATTTTCCTAATCTTTCTGTTCAAGCGCCATCTAC | 0.991 RPM ratio (pull-down/input) |
| GATGATTGTTCTCCCAGCTGATGAATTGAAAGGCTCGAGTAAACAAATTTTCCTAATCTTTCTGTTCAAGCGCCATCTAC | 0.86 RPM ratio (pull-down/input) |
| GATGATTGTTCTCCCAGCTGATGAATTACATACTTCGAGTAAACAAATTTTCCTAATCTTTCTGTTCAAGCGCCATCTAC | 1.2 RPM ratio (pull-down/input) |

| Sequence | binding signal |
| --- | --- |
| GATGATTGTTCTCCCAGCTGATGAATTAGGCCGATCGAGTAAACAAATTTTCCTAATCTTTCTGTTCAAGCGCCATCTAC | 0.874 RPM ratio (pull-down/input) |
| GATGATTGTTCTCCCAGCTGATGAATTGGAACGGTCGAGTAAACAAATTTTCCTAATCTTTCTGTTCAAGCGCCATCTAC | 0.837 RPM ratio (pull-down/input) |
| GATGATTGTTCTCCCAGCTGATGAATTCTCGAGCTCGAGTAAACAAATTTTCCTAATCTTTCTGTTCAAGCGCCATCTAC | 0.719 RPM ratio (pull-down/input) |
| GATGATTGTTCTCCCAGCTGATGAATTGACTACGTCGAGTAAACAAATTTTCCTAATCTTTCTGTTCAAGCGCCATCTAC | 1.04 RPM ratio (pull-down/input) |
| GATGATTGTTCTCCCAGCTGATGAATTTACGGAGTCGAGTAAACAAATTTTCCTAATCTTTCTGTTCAAGCGCCATCTAC | 1.01 RPM ratio (pull-down/input) |
| GATGATTGTTCTCCCAGCTGATGAATTCACTACCTCGAGTAAACAAATTTTCCTAATCTTTCTGTTCAAGCGCCATCTAC | 0.869 RPM ratio (pull-down/input) |
| GATGATTGTTCTCCCAGCTGATGAATTGGGGGATTCGAGTAAACAAATTTTCCTAATCTTTCTGTTCAAGCGCCATCTAC | 0.811 RPM ratio (pull-down/input) |
| GATGATTGTTCTCCCAGCTGATGAATTCAAACCCTCGAGTAAACAAATTTTCCTAATCTTTCTGTTCAAGCGCCATCTAC | 0.816 RPM ratio (pull-down/input) |
| GATGATTGTTCTCCCAGCTGATGAATTATCAGGTTCGAGTAAACAAATTTTCCTAATCTTTCTGTTCAAGCGCCATCTAC | 0.891 RPM ratio (pull-down/input) |
| GATGATTGTTCTCCCAGCTGATGAATTCTGTAGATCGAGTAAACAAATTTTCCTAATCTTTCTGTTCAAGCGCCATCTAC | 0.926 RPM ratio (pull-down/input) |
| GATGATTGTTCTCCCAGCTGATGAATTTTGATTGTCGAGTAAACAAATTTTCCTAATCTTTCTGTTCAAGCGCCATCTAC | 1.67 RPM ratio (pull-down/input) |
| GATGATTGTTCTCCCAGCTGATGAATTACCTACATCGAGTAAACAAATTTTCCTAATCTTTCTGTTCAAGCGCCATCTAC | 1.16 RPM ratio (pull-down/input) |
| GATGATTGTTCTCCCAGCTGATGAATTTAAACGGTCGAGTAAACAAATTTTCCTAATCTTTCTGTTCAAGCGCCATCTAC | 0.843 RPM ratio (pull-down/input) |
| GATGATTGTTCTCCCAGCTGATGAATTGTAGCGGTCGAGTAAACAAATTTTCCTAATCTTTCTGTTCAAGCGCCATCTAC | 0.912 RPM ratio (pull-down/input) |
| GATGATTGTTCTCCCAGCTGATGAATTGCGTTGATCGAGTAAACAAATTTTCCTAATCTTTCTGTTCAAGCGCCATCTAC | 1.1 RPM ratio (pull-down/input) |
| GATGATTGTTCTCCCAGCTGATGAATTTTTAATGTCGAGTAAACAAATTTTCCTAATCTTTCTGTTCAAGCGCCATCTAC | 1.27 RPM ratio (pull-down/input) |
| GATGATTGTTCTCCCAGCTGATGAATTCGACTGTTCGAGTAAACAAATTTTCCTAATCTTTCTGTTCAAGCGCCATCTAC | 0.839 RPM ratio (pull-down/input) |
| GATGATTGTTCTCCCAGCTGATGAATTTACAAAGTCGAGTAAACAAATTTTCCTAATCTTTCTGTTCAAGCGCCATCTAC | 1.43 RPM ratio (pull-down/input) |
| GATGATTGTTCTCCCAGCTGATGAATTCATAGTGTCGAGTAAACAAATTTTCCTAATCTTTCTGTTCAAGCGCCATCTAC | 0.982 RPM ratio (pull-down/input) |
| GATGATTGTTCTCCCAGCTGATGAATTTGGAATCTCGAGTAAACAAATTTTCCTAATCTTTCTGTTCAAGCGCCATCTAC | 0.84 RPM ratio (pull-down/input) |
| GATGATTGTTCTCCCAGCTGATGAATTGAACGGTTCGAGTAAACAAATTTTCCTAATCTTTCTGTTCAAGCGCCATCTAC | 0.891 RPM ratio (pull-down/input) |

| Sequence | binding signal |
| --- | --- |
| GATGATTGTTCTCCCAGCTGATGAATTTCATTTATCGAGTAAACAAATTTTCCTAATCTTTCTGTTCAAGCGCCATCTAC | 1.14 RPM ratio (pull-down/input) |
| GATGATTGTTCTCCCAGCTGATGAATTCATAGGCTCGAGTAAACAAATTTTCCTAATCTTTCTGTTCAAGCGCCATCTAC | 0.747 RPM ratio (pull-down/input) |
| GATGATTGTTCTCCCAGCTGATGAATTTATGGCATCGAGTAAACAAATTTTCCTAATCTTTCTGTTCAAGCGCCATCTAC | 1.2 RPM ratio (pull-down/input) |
| GATGATTGTTCTCCCAGCTGATGAATTAGTCGGCTCGAGTAAACAAATTTTCCTAATCTTTCTGTTCAAGCGCCATCTAC | 0.804 RPM ratio (pull-down/input) |
| GATGATTGTTCTCCCAGCTGATGAATTCTGGCCATCGAGTAAACAAATTTTCCTAATCTTTCTGTTCAAGCGCCATCTAC | 0.77 RPM ratio (pull-down/input) |
| GATGATTGTTCTCCCAGCTGATGAATTATCTAGATCGAGTAAACAAATTTTCCTAATCTTTCTGTTCAAGCGCCATCTAC | 0.863 RPM ratio (pull-down/input) |
| GATGATTGTTCTCCCAGCTGATGAATTTGGTCCATCGAGTAAACAAATTTTCCTAATCTTTCTGTTCAAGCGCCATCTAC | 0.927 RPM ratio (pull-down/input) |
| GATGATTGTTCTCCCAGCTGATGAATTAGCTCTATCGAGTAAACAAATTTTCCTAATCTTTCTGTTCAAGCGCCATCTAC | 0.887 RPM ratio (pull-down/input) |
| GATGATTGTTCTCCCAGCTGATGAATTCGAGCAATCGAGTAAACAAATTTTCCTAATCTTTCTGTTCAAGCGCCATCTAC | 1.04 RPM ratio (pull-down/input) |
| GATGATTGTTCTCCCAGCTGATGAATTGTGCAATTCGAGTAAACAAATTTTCCTAATCTTTCTGTTCAAGCGCCATCTAC | 1.24 RPM ratio (pull-down/input) |
| GATGATTGTTCTCCCAGCTGATGAATTTTGTATATCGAGTAAACAAATTTTCCTAATCTTTCTGTTCAAGCGCCATCTAC | 2.33 RPM ratio (pull-down/input) |
| GATGATTGTTCTCCCAGCTGATGAATTATGAGAATCGAGTAAACAAATTTTCCTAATCTTTCTGTTCAAGCGCCATCTAC | 0.995 RPM ratio (pull-down/input) |
| GATGATTGTTCTCCCAGCTGATGAATTTCGAGCGTCGAGTAAACAAATTTTCCTAATCTTTCTGTTCAAGCGCCATCTAC | 0.777 RPM ratio (pull-down/input) |
| GATGATTGTTCTCCCAGCTGATGAATTGACTTCTTCGAGTAAACAAATTTTCCTAATCTTTCTGTTCAAGCGCCATCTAC | 0.996 RPM ratio (pull-down/input) |
| GATGATTGTTCTCCCAGCTGATGAATTGATTGTCTCGAGTAAACAAATTTTCCTAATCTTTCTGTTCAAGCGCCATCTAC | 1.16 RPM ratio (pull-down/input) |
| GATGATTGTTCTCCCAGCTGATGAATTTATGAACTCGAGTAAACAAATTTTCCTAATCTTTCTGTTCAAGCGCCATCTAC | 1.04 RPM ratio (pull-down/input) |
| GATGATTGTTCTCCCAGCTGATGAATTTGCTACCTCGAGTAAACAAATTTTCCTAATCTTTCTGTTCAAGCGCCATCTAC | 0.995 RPM ratio (pull-down/input) |
| GATGATTGTTCTCCCAGCTGATGAATTATTTATGTCGAGTAAACAAATTTTCCTAATCTTTCTGTTCAAGCGCCATCTAC | 1.83 RPM ratio (pull-down/input) |
| GATGATTGTTCTCCCAGCTGATGAATTCCCCACCTCGAGTAAACAAATTTTCCTAATCTTTCTGTTCAAGCGCCATCTAC | 0.815 RPM ratio (pull-down/input) |
| GATGATTGTTCTCCCAGCTGATGAATTTGCAACGTCGAGTAAACAAATTTTCCTAATCTTTCTGTTCAAGCGCCATCTAC | 1.13 RPM ratio (pull-down/input) |
| GATGATTGTTCTCCCAGCTGATGAATTGCGCTCTTCGAGTAAACAAATTTTCCTAATCTTTCTGTTCAAGCGCCATCTAC | 1.07 RPM ratio (pull-down/input) |
